# Measured values: PubChem BioAssay (Tox21)
# Values joined by “and” are separate entries in the source; they are usually repeats but may differ in a detail not shown here. Identical values can stand only once. Inconclusive means that the source gave no clear call. Such entries were picked first, then a sample of the others. For some assays here: Potencies of inconclusive entries are left out as doubtful fits. Where a structure was tested more than once in an assay, its records may differ in their call. Active and inactive are the calls of the source. Unless noted, calls come from the whole dose curve; as a rule, active = well fitted curve in the direction sought with a large enough effect in the repeat runs; inconclusive = weak or mixed curves; inactive = no such curve, though single readings can be large; an effect the other way counts as inactive or inconclusive.
# Tests used:
# [1] = qHTS assay to identify small molecule agonists of the retinoic acid receptor (RAR) signaling pathway (AID 1159553); settings: C3RL4 RARE luciferase reporter, agonist, 6 h; activation: at 73.3 µM (top of the series) unless noted; note: potency is the fitted concentration of half-maximal effect
# Summary of the method: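 Reporter readout comes from luciferase under RARE control in C3RL4 cells; compound exposure lasts 6 hr at 37 C in 5% CO2, and luminescence is recorded following a 30 min room-temperature incubation with reagent.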
# [2] = biological target: Estrogen receptor beta (Homo sapiens) (UniProt Q92731); assay: qHTS assay to identify small molecule agonists of the estrogen receptor beta (ER-beta) signaling pathway (AID 1259377; active = well fitted activation curve with a large enough effect in the signal ratio in the repeat runs, not every such curve was filed as active; inconclusive = weak or mixed curves, or effect the other way; the % refers to the signal ratio; note: potency is the fitted concentration of half-maximal effect; for activation: % is set by controls: 0 for no effect and ±100 for the full control effect); settings: ER-beta-UAS-bla HEK293T, beta-lactamase FRET ratio, 16 h; activation: at 92.4 µM (top of the series) unless noted
# Chain of UniProt Q92731 (Q92731 whole entry, looked up, the tested form may be a part): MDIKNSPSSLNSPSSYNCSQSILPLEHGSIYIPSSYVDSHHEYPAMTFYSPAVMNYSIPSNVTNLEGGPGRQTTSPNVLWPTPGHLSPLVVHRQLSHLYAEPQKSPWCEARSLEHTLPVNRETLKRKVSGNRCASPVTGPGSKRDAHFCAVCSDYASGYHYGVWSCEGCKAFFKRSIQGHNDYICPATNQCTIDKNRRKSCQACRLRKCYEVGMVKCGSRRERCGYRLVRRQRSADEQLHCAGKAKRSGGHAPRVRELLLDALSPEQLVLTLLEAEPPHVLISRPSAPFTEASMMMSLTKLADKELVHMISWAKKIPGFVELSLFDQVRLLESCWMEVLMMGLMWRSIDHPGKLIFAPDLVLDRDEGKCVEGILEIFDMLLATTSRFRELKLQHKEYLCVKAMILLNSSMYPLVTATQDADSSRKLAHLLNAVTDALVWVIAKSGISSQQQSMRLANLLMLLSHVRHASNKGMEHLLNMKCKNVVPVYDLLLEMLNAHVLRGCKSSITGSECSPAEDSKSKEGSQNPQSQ
# Summary of the method: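 Agonist mode cell assay in GripTite HEK293T cells expressing an ER-beta fusion that drives beta-lactamase from an Upstream Activator Sequence; 16 hr compound exposure at 37C, then 2 h LiveBLAzer B/G FRET substrate at room temperature, fluorescence read-out.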
# [3] = biological target: Cytochrome P450 2C19 (Homo sapiens) (UniProt P33261); assay: Cytochrome P450 Family 2 Subfamily C Member 19 (CYP2C19) small molecule antagonists: luciferase reporter qHTS assay (AID 1671197); note: nearly all actives have a fitted effect of over 65% in size; note: potency is the fitted concentration of half-maximal effect
# Chain of UniProt P33261 (P33261 whole entry, looked up): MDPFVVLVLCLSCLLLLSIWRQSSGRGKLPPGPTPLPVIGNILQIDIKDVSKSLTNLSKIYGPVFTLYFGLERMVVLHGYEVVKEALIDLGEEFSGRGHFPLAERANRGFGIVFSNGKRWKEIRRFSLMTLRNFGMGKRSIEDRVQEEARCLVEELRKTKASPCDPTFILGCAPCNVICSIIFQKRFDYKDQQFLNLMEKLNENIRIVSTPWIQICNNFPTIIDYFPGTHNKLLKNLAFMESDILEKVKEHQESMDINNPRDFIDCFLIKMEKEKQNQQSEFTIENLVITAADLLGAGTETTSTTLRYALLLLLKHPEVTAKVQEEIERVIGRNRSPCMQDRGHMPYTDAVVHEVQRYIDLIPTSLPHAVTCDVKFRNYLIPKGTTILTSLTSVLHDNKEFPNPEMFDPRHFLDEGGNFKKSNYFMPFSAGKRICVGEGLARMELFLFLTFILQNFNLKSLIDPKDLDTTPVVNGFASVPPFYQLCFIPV
# Summary of the method: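 Relative luminescence units recorded 20 min after the detection reagent stopped a 1 h, 37C CYP2C19 reaction on proluciferin substrate, which was started by NADPH regeneration following 10 min room-temperature compound preincubation; ketoconazole positive control.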
# [4] = qHTS assay to identify small molecule antagonists of the peroxisome proliferator-activated receptor delta (PPARd) signaling pathway - cell viability counter screen (AID 743213); settings: PPARd-bla HEK293H viability, CellTiter-Glo luminescence, 17 h; viability change, negative = cytotoxic: at 62 µM (top of the series) unless noted; note: nearly all actives have a fitted effect of over 50% in size; note: potency is the fitted concentration of half-maximal effect
# Summary of the method: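 HEK293H cells with the PPARd UAS-bla reporter, co-treated 17 h at 37 C with compounds and L165041 (300 nM final), were lysed with CellTiter-Glo. Luminescence indicated viable cell content.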
# [5] = qHTS assay to identify small molecule agonists of the vitamin D receptor (VDR) signaling pathway - cell viability counter screen (AID 743224); note: nearly all actives have a fitted effect of over 50% in size; note: potency is the fitted concentration of half-maximal effect; for activity change, negative = cytotoxicity: % is set by controls: 0 for no effect and ±100 for the full control effect
# Summary of the method: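 Plated VDR-bla cells (4 h, 37C) received compound, incubated 16 h, then LiveBLAzer substrate 2 h RT; CellTiter-Glo added afterwards, luminescence read at 30 min.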
# [6] = qHTS assay for small molecule agonists of the p53 signaling pathway (AID 651631; calls by dose curve; note: % is set by controls: 0 for no effect and ±100 for the full control effect; nearly all actives have a fitted effect of over 15% in size); settings: HCT-116 p53RE-bla reporter, beta-lactamase FRET ratio, 16 h; activation: at 73.3 µM (top of the series) unless noted
# Summary of the method: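 Agonist mode screen using a stably integrated beta-lactamase gene under p53 response elements in HCT-116 cells. Compound exposure lasts 16 h at 37 °C; fluorescence intensity is measured following 2 h FRET substrate loading.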
# [7] = qHTS assay for identifying genotoxic compounds that show differential cytotoxicity against isogenic chicken DT40 cell lines with known DNA damage response pathways - wild type cell line (AID 743012); settings: DT40 wild type chicken cells viability, CellTiter-Glo, 40 h; activity change, negative = cytotoxicity: at 68.4 µM (top of the series) unless noted; note: nearly all actives have a fitted effect of over 60% in size; note: potency is the fitted concentration of half-maximal effect
# Summary of the method: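 First, wild type DT40 cells were plated at 300 per well and equilibrated about 0.5 h at 37 C/5% CO2. Next, compounds in DMSO were added and exposure lasted 40 h. Finally, CellTiter-Glo was added for 30 min at room temperature and luminescence recorded.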
# [8] = biological target: Thyrotropin receptor (Homo sapiens) (UniProt P16473); assay: qHTS assay to identify small molecule agonists of the thyroid stimulating hormone receptor (TSHR) signaling pathway (AID 1224843; calls by dose curve; note: nearly all actives have a fitted effect of over 45% in size; note: potency is the fitted concentration of half-maximal effect; for activation: % is set by controls: 0 for no effect and ±100 for the full control effect); settings: TSHR-HEK293 cells, cAMP HTRF, agonist mode, 30 min; activation: at 92.4 µM (top of the series) unless noted
# Chain of UniProt P16473 (P16473 whole entry, looked up): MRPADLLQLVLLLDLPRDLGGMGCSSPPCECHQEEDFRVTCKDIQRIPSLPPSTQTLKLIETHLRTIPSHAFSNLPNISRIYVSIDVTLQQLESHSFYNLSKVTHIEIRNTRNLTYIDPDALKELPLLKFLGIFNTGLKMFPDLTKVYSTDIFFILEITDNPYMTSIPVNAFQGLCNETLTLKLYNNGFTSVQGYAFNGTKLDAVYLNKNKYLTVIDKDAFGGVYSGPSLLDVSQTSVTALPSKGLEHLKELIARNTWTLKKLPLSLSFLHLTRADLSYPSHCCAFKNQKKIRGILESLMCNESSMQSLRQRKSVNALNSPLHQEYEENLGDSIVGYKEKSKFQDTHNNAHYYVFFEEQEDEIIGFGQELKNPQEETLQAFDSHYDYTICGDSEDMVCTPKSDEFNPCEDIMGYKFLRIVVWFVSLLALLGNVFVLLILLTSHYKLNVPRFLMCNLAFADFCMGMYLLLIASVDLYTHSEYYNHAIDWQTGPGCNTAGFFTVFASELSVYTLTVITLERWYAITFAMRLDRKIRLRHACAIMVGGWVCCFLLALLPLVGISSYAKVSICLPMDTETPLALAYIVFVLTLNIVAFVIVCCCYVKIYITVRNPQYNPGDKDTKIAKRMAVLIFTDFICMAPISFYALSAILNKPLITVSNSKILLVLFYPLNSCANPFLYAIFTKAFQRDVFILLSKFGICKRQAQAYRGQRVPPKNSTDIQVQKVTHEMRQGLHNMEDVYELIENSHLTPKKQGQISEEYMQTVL
# Summary of the method: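 Screening of the Tox21 10K collection used HEK293 cells engineered with TSHR at 800 cells per well. After a 30-min room-temperature compound exposure, HTRF cAMP reagents were added and fluorescence recorded 1 h later.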
# [9] = Caspase-3/7 induction in CHO-K1 cells by small molecules, qHTS cell viability counter screen (AID 1346979); note: nearly all actives have a fitted effect of over 35% in size; note: potency is the fitted concentration of half-maximal effect
# Summary of the method: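 Cytotoxicity counter screen run in parallel with the caspase-3/7 assay: CHO-K1 cells, 16hr compound treatment at 37C, then CellTiter-Fluor for 1hr before fluorescence reading.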
# [10] = qHTS RealTime-Glo MT Cell Viability Assay in HEK293 cells - 32 hour (AID 1224868); note: nearly all actives have a fitted effect of over 50% in size; note: potency is the fitted concentration of half-maximal effect
# Summary of the method: (§1)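 Homogeneous bioluminescent viability format in HEK293 cells (600 cells/well). Following 5 h at 37 C/5% CO2, 23 nL compound was pintooled; the signal was measured repeatedly during 40 h incubation.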
# [11] = qHTS RealTime-Glo MT Cell Viability Assay in HEK293 cells - 16 hour (AID 1224872); note: nearly all actives have a fitted effect of over 50% in size; note: potency is the fitted concentration of half-maximal effect
# Summary of the method: as §1
# [12] = qHTS RealTime-Glo MT Cell Viability Assay in HEK293 cells - 24 hour (AID 1224886); note: nearly all actives have a fitted effect of over 50% in size; note: potency is the fitted concentration of half-maximal effect
# Summary of the method: as §1
# [13] = qHTS assay to identify small molecule agonists of the RXR signaling pathway - cell viability counter screen (AID 1159529); note: nearly all actives have a fitted effect of over 50% in size; note: potency is the fitted concentration of half-maximal effect
# Summary of the method: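 Steps: seed RXR-alpha-UAS-bla HEK 293T cells in assay medium containing 2% charcoal-stripped FBS; incubate 5 hr; add compounds in DMSO; incubate 16 hr at 37 C; after the bla read, add CellTiter-Glo and read luminescence at 30 min.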
# [14] = qHTS assay to identify small molecule agonists of H2AX - cell viability counter screen (AID 1224847; calls by dose curve; note: nearly all actives have a fitted effect of over 30% in size; note: potency is the fitted concentration of half-maximal effect)
# Summary of the method: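 Cytotoxicity counter screen in wild-type CHO-K1 cells: a 3 hr compound treatment at 37C across 15 concentrations, followed by CellTiter-Glo luminescence to gauge viable cells.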
# [15] = biological target: Peroxisome proliferator-activated receptor delta (Homo sapiens) (UniProt Q03181); assay: qHTS assay to identify small molecule antagonists of the peroxisome proliferator-activated receptor delta (PPARd) signaling pathway (AID 743215; active = well fitted inhibition curve with a large enough effect in the signal ratio in the repeat runs, not every such curve was filed as active; inconclusive = weak or mixed curves, or effect the other way; inactive = no such curve, though single readings can be large or run the other way; the % refers to the signal ratio;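 note: cells stimulated with agonist L165041 at 300 nM final during compound exposure; % is set by controls: 0 for no effect and ±100 for the full control effect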); settings: HEK293H PPARd-UAS-bla, beta-lactamase FRET ratio, antagonist, 17 h
# Chain of UniProt Q03181 (Q03181 whole entry, looked up): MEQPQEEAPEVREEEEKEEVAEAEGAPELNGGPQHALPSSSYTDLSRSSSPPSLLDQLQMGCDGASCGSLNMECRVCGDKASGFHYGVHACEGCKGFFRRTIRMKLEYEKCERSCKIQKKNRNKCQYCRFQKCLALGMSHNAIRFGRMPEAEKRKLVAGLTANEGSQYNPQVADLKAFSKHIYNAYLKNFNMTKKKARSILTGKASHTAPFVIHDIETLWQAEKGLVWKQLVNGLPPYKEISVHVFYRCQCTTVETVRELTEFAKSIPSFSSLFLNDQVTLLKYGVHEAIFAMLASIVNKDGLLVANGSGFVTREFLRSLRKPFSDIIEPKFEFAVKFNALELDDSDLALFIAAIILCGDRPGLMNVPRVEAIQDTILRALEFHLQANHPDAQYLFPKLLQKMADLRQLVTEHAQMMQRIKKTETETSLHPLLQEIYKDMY
# Summary of the method: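 HEK293H UAS-bla, PPARd; agonist L165041 300 nM final with cpd in DMSO; 37 C 17 h; FRET substrate, RT 2 h; fluorescence intensity.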
# [16] = biological target: Estrogen receptor (Homo sapiens) (UniProt P03372); assay: qHTS assay to identify small molecule agonists of the estrogen receptor alpha (ER-alpha) signaling pathway using the BG1 cell line (AID 743079); settings: BG1Luc4E2 cells, ERE-luciferase agonist, 22 h; activation: at 70.3 µM (top of the series) unless noted; note: nearly all actives have a fitted effect of over 20% in size; note: potency is the fitted concentration of half-maximal effect
# Chain of UniProt P03372 (P03372 whole entry, looked up): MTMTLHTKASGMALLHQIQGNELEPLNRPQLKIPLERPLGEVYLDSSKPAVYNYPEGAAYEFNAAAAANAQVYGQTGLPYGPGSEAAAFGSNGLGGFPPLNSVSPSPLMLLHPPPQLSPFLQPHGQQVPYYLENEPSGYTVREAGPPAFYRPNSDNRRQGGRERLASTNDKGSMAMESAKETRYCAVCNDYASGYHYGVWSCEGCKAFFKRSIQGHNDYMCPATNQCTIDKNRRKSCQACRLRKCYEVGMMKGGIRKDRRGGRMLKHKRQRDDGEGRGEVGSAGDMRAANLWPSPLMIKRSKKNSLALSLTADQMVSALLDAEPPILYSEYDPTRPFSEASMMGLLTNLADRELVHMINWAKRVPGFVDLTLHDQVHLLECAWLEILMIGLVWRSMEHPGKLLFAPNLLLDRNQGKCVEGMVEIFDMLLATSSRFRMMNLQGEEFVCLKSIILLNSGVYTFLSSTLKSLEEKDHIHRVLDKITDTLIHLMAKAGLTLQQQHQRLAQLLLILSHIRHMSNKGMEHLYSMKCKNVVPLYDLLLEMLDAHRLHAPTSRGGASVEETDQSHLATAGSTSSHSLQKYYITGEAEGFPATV
# [17] = qHTS assay to identify small molecule antagonists of the estrogen related receptor (ERR) signaling pathway from Tox21 library - cell viability counter screen (AID 1224834); note: nearly all actives have a fitted effect of over 30% in size; note: potency is the fitted concentration of half-maximal effect
# Summary of the method: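 After 17.5 h of compound exposure at 37 C, ERR cells are incubated with CellTiter-Fluor for 30 min and fluorescence intensity serves as the viability measure.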
# [18] = qHTS assay to identify small molecule antagonists of the estrogen receptor alpha (ER-alpha) signaling pathway - cell viability counter screen (AID 743074; calls by dose curve;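 note: HEK293 cells carrying ER-alpha-UAS-bla reporter stimulated with 17beta-estradiol; nearly all actives have a fitted effect of over 45% in size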; note: potency is the fitted concentration of half-maximal effect)
# [19] = qHTS assay to identify small molecule antagonists of the vitamin D receptor (VDR) signaling pathway - cell viability counter screen (AID 743225); settings: VDR-bla HEK293T viability, CellTiter-Glo luminescence, 16 h; viability change, negative = cytotoxic: at 61 µM (top of the series) unless noted; note: nearly all actives have a fitted effect of over 50% in size; note: potency is the fitted concentration of half-maximal effect
# Summary of the method: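 HEK293T VDR-bla; cpd + 1a,25-(OH)2D3 3 nM final, 16 h 37C/5% CO2; B/G FRET substrate 2 h RT; then CellTiter-Glo 30 min RT, luminescence.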
# [20] = biological target: Nuclear receptor subfamily 1 group I member 2 (Homo sapiens) (UniProt O75469); assay: Human pregnane X receptor (PXR) small molecule agonists, qHTS assay (AID 1346982); note: potency is the fitted concentration of half-maximal effect; nearly all actives have a fitted effect of over 35% in size
# Chain of UniProt O75469 (O75469 whole entry, looked up): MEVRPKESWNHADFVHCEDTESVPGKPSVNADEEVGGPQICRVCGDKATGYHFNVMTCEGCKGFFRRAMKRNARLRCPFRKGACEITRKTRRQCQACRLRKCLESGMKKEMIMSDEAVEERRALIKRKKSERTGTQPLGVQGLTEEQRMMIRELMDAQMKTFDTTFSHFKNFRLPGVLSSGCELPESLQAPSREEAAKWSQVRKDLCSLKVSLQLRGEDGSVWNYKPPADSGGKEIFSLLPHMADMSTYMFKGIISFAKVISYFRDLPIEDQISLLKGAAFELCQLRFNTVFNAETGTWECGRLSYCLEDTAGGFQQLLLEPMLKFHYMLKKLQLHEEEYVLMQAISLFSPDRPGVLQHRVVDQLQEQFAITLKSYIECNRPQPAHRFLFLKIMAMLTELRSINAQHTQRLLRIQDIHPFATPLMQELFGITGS
# Summary of the method: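 Compound-induced hPXR transactivation of a CYP3A4 luciferase reporter was scored in HepG2 PXR-Luc cells over 24 hr at 37 C, 5% CO2, by luminescence.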
# [21] = ratio activity, negative = inhibition: at 62 µM (top of the series) unless noted
# Tags give direction and shape of the fitted curve or compound fluorescence and quenching.
compound,measurement,setting,value
CC1=NNC(=O)N(/N=C/c2cccnc2)C1,Potency,[1],"inconclusive [activator, full curve, poor fit]"
same,activation,[2],inconclusive: 12.4%
same,Potency,[3],"inconclusive [inhibitor, single point]"
CCN(CC)C(C)C(=O)c1ccccc1 (stereo not drawn),Potency,[4],"inconclusive [cytotoxic, full curve, poor fit]"
same,Potency,[5],inactive
CNC(=O)Oc1cc(C)c(N(C)C)c(C)c1,activation,[6],inconclusive: 3.83%
same,Potency,[7],"inconclusive [cytotoxic, single point]"
same,Potency,[5],inactive
same,Potency,[8],"inconclusive [activator, single point]"
same,Potency,[2],"inconclusive [fluorescent, partial curve]"
same,Potency,[9],inconclusive [cytotoxic]
CC(C1CC1)C(O)(Cn1cncn1)c1ccc(Cl)cc1 (stereo not drawn),Potency,[10],"inconclusive [cytotoxic, partial curve]"
same,Potency,[11],"inconclusive [cytotoxic, partial curve, poor fit]"
same,Potency,[12],"inconclusive [cytotoxic, single point]"
same,activation,[2],inconclusive: 8.64%
same,Potency,[3],active: 0.354 µM
O=C1C=CC(=O)c2ccccc21,Potency,[13],active: 9.77 µM
same,activation,[8],inconclusive: -48%
same,Potency,[14],active: 20.1 µM
same,Potency,[11],active: 5.49 µM
same,Potency,[12],active: 5.49 µM
same,Potency,[2],inconclusive [partial curve]
N#CC(Cl)(Cl)Cl,Potency,[6],inactive
same,Potency,[7],inactive
same,Potency,[4],inactive
same,Potency,[15]; [21],inactive
same,Potency,[10],inactive
same,Potency,[9],inactive
same,Potency,[3],"inconclusive [inhibitor, single point]"
CNC(=O)CSP(=S)(OC)OC,Potency,[7],"inconclusive [cytotoxic, single point]"
same,activation,[16],inconclusive: 20% [phenotype inactive]
same,Potency,[4],"inconclusive [cytotoxic, single point]"
same,"ratio activity, negative = inhibition",[15]; at 80.4 µM (top of the series),inactive: 1.64%
same,"ratio activity, negative = inhibition",[15]; [21],inconclusive: 4%
same,Potency,[17],inactive
same,Potency,[8],inactive
O=C1CCCN1,Potency,[7],inactive
same,Potency,[18],"inconclusive [rising, single point]"
same,Potency,[16],inactive and active: 48.6 µM
same,Potency,[15]; [21],inactive
same,Potency,[14],inactive
COC1=CC(=O)O[C@@H](/C=C/c2ccc3c(c2)OCO3)C1,Potency,[6],inactive
same,Potency,[18],"inconclusive [rising, full curve]"
same,Potency,[13],inactive
same,Potency,[2],inconclusive [fluorescent]
O=S(=O)(NS(=O)(=O)C(F)(F)F)C(F)(F)F,Potency,[19],inactive
same,Potency,[13],"inconclusive [cytotoxic, single point]"
same,Potency,[17],active: 43.1 µM
same,Potency,[11],"inconclusive [cytotoxic, full curve]"
same,Potency,[12],active: 1.23 µM
same,Potency,[9],active: 48.4 µM
CC(Cl)(Cl)[N+](=O)[O-],Potency,[18],"inconclusive [rising, partial curve]"
same,Potency,[12],inactive
same,Potency,[3],inactive
CC(=O)[C@H]1CC[C@H]2[C@@H]3CC[C@H]4C[C@H](O)CC[C@]4(C)[C@H]3C(=O)C[C@]12C,Potency,[18],inactive
same,Potency,[13],"inconclusive [cytotoxic, single point]"
same,Potency,[10],"inconclusive [cytotoxic, single point]"
same,Potency,[20],"inconclusive [activator, single point]"
CN(C)CCN(C)C,Potency,[19],"inconclusive [rising, partial curve, poor fit]"
same,Potency,[1],inactive
same,activation,[2],inconclusive: 11%
Cc1nnc(-c2ccccc2)c(=O)n1N,Potency,[6],inactive
same,Potency,[16],"inconclusive [activator, partial curve]"
same,Potency,[5],"inconclusive [cytotoxic, partial curve, poor fit]"
same,Potency,[17],inactive
same,Potency,[8],inactive
same,Potency,[14],inactive
same,Potency,[11],inactive
